Data: publication PMC5467213, “Architecture of the RNA polymerase II-Paf1C-TFIIS transcription elongation complex” (Nature Communications, 2017)

Columns and labels:
Rpb2 (Pol II subunit) = target: T1, Rpb2 (Pol II subunit) (yeast, UniProt P08518 1-1224); assay: cross-linking; Pol II-Paf1C-TFIIS EC after SEC, 425 μg/ml, 0.5 mM BS3, 30 min, 30 °C; trypsin, Orbitrap Fusion LC-MS/MS, pLink, FDR 1%; details: both partners purified
T1 construct: Rpb2, subunit of yeast Pol II; source: part of purified Pol II

Ctr9-ΔC913 = target: T2, Ctr9-ΔC913 (S. cerevisiae, UniProt P89105 1-913); assay: as above; details: both partners purified
T2 construct: Ctr9, S. cerevisiae, variant lacking 164 amino acids at its C terminus (Ctr9-ΔC913); also called Ctr9 (in the Pol II-Paf1C-TFIIS EC); source: E. coli BL21 CodonPlus(DE3)RIL, coexpressed with the other subunits; in lysate and purified as part of Paf1C-Ctr9-ΔC913
T2 sequence (looked up): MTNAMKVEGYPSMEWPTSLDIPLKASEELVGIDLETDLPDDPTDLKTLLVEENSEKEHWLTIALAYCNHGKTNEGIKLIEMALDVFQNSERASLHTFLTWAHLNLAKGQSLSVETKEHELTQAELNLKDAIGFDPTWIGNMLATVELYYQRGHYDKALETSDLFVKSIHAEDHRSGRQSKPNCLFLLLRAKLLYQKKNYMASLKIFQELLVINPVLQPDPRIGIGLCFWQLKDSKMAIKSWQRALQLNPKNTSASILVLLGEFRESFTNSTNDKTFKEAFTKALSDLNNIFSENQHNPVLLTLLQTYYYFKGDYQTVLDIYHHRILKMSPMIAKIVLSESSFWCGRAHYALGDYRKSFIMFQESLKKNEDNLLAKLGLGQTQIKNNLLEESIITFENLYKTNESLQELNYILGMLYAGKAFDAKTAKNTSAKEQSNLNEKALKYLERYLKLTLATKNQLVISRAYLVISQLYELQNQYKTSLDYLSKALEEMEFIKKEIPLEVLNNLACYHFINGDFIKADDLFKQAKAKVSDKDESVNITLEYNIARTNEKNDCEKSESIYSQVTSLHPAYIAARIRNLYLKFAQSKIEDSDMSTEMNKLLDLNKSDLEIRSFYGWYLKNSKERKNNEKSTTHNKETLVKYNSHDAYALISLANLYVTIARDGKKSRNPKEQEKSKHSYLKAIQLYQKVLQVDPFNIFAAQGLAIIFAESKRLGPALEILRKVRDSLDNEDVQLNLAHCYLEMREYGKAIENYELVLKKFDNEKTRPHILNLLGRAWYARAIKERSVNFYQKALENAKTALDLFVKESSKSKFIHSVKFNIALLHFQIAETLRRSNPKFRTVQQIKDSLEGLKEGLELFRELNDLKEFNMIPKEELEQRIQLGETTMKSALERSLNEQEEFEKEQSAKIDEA

[1] = target: T3, Ctr9 (full length, C-terminal hexahistidine tag) (S. cerevisiae, UniProt P89105 1-1077); assay: co-purification after coexpression (Ni-NTA, cation exchange, SEC); subunits coexpressed in E. coli from three vectors, cells colysed; Ni-NTA (hexahistidine tag on Ctr9), HiTrap SP cation exchange, Superose 6 size exclusion; SDS-PAGE, subunits confirmed by mass spectrometry; details: partners not purified
T3 construct: Ctr9, S. cerevisiae, full length, amplified from genomic DNA, in pET24b; source: E. coli BL21 CodonPlus(DE3)RIL, coexpressed with the other subunits; in lysate and purified as part of Paf1C; not shown: His6, C-terminal, kept
T3 sequence (looked up): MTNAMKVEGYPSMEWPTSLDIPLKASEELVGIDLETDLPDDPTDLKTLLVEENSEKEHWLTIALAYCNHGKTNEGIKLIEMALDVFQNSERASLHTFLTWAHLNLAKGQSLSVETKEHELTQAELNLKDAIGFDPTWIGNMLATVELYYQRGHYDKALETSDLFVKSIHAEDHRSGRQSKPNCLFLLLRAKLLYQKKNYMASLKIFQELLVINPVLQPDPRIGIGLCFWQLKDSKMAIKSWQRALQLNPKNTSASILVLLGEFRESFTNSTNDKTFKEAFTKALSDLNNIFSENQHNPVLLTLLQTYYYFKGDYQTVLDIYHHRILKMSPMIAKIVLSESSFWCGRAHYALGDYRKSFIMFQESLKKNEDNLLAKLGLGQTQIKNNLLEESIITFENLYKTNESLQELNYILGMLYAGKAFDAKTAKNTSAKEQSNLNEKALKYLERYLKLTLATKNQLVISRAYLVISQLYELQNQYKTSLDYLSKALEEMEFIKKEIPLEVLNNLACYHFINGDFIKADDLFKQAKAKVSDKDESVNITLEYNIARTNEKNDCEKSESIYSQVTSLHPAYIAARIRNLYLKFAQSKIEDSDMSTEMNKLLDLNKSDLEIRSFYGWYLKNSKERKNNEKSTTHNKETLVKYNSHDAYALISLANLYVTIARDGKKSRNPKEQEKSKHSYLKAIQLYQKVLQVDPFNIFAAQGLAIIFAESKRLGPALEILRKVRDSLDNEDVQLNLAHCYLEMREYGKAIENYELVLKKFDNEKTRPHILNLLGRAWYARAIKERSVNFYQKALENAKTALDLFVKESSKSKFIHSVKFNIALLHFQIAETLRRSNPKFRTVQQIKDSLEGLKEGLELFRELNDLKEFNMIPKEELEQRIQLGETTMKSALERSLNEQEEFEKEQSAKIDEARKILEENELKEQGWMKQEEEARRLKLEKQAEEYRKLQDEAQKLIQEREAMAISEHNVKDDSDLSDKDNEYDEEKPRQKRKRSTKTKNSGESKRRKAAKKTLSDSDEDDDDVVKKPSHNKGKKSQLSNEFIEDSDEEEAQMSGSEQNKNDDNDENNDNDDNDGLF

Chain of Rpb2 (Pol II subunit) (P08518 whole entry, the tested form may be a part): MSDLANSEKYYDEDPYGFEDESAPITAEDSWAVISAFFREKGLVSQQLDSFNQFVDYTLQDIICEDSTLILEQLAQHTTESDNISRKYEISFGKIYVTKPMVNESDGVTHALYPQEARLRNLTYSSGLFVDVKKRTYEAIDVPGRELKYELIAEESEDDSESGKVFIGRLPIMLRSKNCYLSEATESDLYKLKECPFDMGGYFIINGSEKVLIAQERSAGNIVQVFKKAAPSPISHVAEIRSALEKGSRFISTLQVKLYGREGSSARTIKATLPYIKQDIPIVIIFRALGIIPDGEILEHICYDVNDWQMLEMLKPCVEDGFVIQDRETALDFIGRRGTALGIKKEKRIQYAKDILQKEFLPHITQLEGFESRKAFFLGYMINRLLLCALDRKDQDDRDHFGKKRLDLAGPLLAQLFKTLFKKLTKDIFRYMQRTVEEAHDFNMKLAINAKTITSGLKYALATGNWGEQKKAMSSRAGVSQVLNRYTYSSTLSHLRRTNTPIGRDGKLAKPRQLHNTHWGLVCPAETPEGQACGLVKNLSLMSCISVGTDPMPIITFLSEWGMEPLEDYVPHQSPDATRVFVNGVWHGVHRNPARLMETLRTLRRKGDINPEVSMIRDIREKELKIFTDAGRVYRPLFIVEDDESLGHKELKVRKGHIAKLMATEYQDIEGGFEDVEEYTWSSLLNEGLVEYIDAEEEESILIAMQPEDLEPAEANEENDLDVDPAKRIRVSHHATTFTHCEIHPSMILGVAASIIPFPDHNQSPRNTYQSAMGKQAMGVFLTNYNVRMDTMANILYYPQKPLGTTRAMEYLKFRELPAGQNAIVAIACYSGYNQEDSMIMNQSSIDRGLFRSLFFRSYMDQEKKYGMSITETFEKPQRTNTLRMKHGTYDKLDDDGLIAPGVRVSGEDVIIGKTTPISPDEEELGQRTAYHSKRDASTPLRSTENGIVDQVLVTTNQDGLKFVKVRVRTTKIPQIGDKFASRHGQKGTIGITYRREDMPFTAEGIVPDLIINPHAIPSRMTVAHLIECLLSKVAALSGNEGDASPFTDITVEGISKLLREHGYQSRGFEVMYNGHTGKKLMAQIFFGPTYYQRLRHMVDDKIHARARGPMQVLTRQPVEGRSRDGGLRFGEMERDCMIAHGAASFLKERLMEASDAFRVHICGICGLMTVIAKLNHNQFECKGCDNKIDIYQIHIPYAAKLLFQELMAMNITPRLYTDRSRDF

binding result (Rpb2 (Pol II subunit)): binds
binding result (Ctr9-ΔC913): binds
binding result [1]: binds
B1: Rtf1 (natural protein)
chain: not shown
notes: Rtf1, S. cerevisiae, full length, amplified from genomic DNA; source: E. coli BL21 CodonPlus(DE3)RIL, coexpressed with Cdc73; in lysate and purified as part of Paf1C
